# The whole screen tested about 310,000 compounds, of which about 18,000 (5.8%) were called active. This list was built around the results that the source calls inconclusive (neither active nor inactive); the mix of calls is not that of the screen. The call rests on the fitted dose curve; in most records, active means well fitted inhibition curve with a large enough effect; inconclusive means small, poorly fitted or top-dose-only effect, or another doubt; inactive means no such curve, though single readings can be large or run the other way. Potencies of inconclusive entries are left out as doubtful fits.
# Assay: Primary qHTS for delayed death inhibitors of the malarial parasite plastid, 48 hour incubation
# Conditions: P. falciparum luciferase growth in erythrocytes; series mostly up to 28.7 µM
# Procedure, shortened: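 Luciferase-expressing P. falciparum in infected erythrocytes (2% hematocrit, 0.1% parasitemia final) in RPMI 1640/0.5% Albumax were exposed to compound for 48 hours at 37 C, 5% CO2; growth read as luminescence.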
# Potency means the concentration at half of the fitted maximal effect; tags describe the fitted curve by direction and shape.
row,Compound,Potency
1,O=C(CSc1ccc(Cl)cc1)Nc1ccc(N2CCN(C(=O)c3ccco3)CC2)cc1,active: 11.7 µM
2,CCOC(=O)C1(Cc2cccc(Cl)c2)CCCN(C(=O)c2ccc(COC)s2)C1 (configuration not stated),"inconclusive [inhibitor, single point]"
3,COc1ccc(C(=O)N[C@H](C(=O)Nc2ccc(S(=O)(=O)N3CCOCC3)cc2)C(C)C)cc1,"inconclusive [inhibitor, partial curve, poor fit]"
4,O=C(C1=C[C@@H](c2ccc3c(c2)OCO3)C[C@@H](OCCCCO)O1)N1CCN(Cc2ccc3c(c2)OCO3)CC1,"inconclusive [inhibitor, full curve]"
5,CC12CCC(C(=O)Nc3ccncc3)(CC1O)C2(C)C (configuration not stated),inactive
6,O=C(CCN1C(=O)COc2ccccc21)NCCCN1CCCC1,inactive
7,O=C(Nc1ccc2c(c1)CCCN2C(=O)c1cccs1)c1cccc(F)c1,inactive
8,COc1ccc(NC(=O)CN(C)C(=O)c2ccc(COc3ccccc3)cc2)cc1,"inconclusive [inhibitor, single point]"
9,O=C(NCc1ccccn1)c1c(Cl)cccc1Cl,inactive
10,O=C(OCCOc1ccccc1)c1cccc(S(=O)(=O)N2CCOCC2)c1,"inconclusive [inhibitor, single point]"
11,CCOc1ccccc1NC(=O)c1cc(-c2ccncc2)nc2c(Cl)cccc12,active: 5.22 µM
12,COc1ccccc1NC(=O)C(C)OC(=O)c1cccc(-n2cnnn2)c1 (configuration not stated),"inconclusive [inhibitor, single point]"
13,Cc1cccc(-c2nc(CN3CCN(Cc4cccc(F)c4)CC3)c(C)o2)c1,"inconclusive [inhibitor, single point]"
14,O[C@@H]1CN(C2CCCCC2)CC[C@H]1N1CCN(CCc2ccccc2)CC1,"inconclusive [inhibitor, partial curve, poor fit]"
15,COc1ccccc1-n1c(-c2cccs2)nc2ccccc2c1=O,"inconclusive [inhibitor, full curve, poor fit]"
16,COC(=O)C1=C(N)OC2=C(C(=O)CC(C)(C)C2)C1c1cccnc1 (configuration not stated),inactive
17,O=C(CSc1nnc2ccccn12)Nc1cccc(-c2nc3ccccc3s2)c1,inactive
18,COc1ccc(OC(C)C(=O)NC(C)c2ccccc2)cc1 (configuration not stated),inactive
19,O=C(CSc1nc2ccccc2[nH]1)Nc1nc(-c2ccc(Br)cc2)cs1,"inconclusive [inhibitor, single point]"
20,COc1ccc(NC(=O)c2c(C)noc2C(C)C)cc1S(=O)(=O)N1CCCCC1,"inconclusive [inhibitor, single point]"
21,CC1CN(c2ccc([N+](=O)[O-])c(NCCOc3ccccc3)c2)CC(C)N1 (configuration not stated),"inconclusive [inhibitor, single point]"
22,CC1Sc2n(c3ccccc3[n+]2C)N=C1c1ccccc1 (configuration not stated),active: 0.928 µM
23,CCN(CC)CCCNCC(=O)Nc1ccc2c(c1)CCC2,"inconclusive [inhibitor, partial curve, poor fit]"

row,Compound,Potency
1,c1cc2n(c1)-c1c(ccc3c1OCO3)CNC2c1ccc2c(c1)OCO2 (configuration not stated),"inconclusive [inhibitor, single point]"
2,Cc1c[n+](C)ccc1CC1C([N+](=O)[O-])=C[N-]c2ncnn21 (configuration not stated),"inconclusive [inhibitor, full curve, poor fit]"
3,CS(=O)(=O)c1ccc(-n2c(=O)n(Cc3ccccc3)c(=O)c3[nH]cnc32)cc1,"inconclusive [inhibitor, partial curve, poor fit]"
4,CCOC(=O)c1sc(-c2ccccc2)cc1NC(=O)Nc1ccc([N+](=O)[O-])cc1,"inconclusive [inhibitor, partial curve, poor fit]"
5,C=CCN(c1ccc(F)cc1)S(=O)(=O)c1cc(C(=O)NC2CCC(O)CC2)ccc1Cl (configuration not stated),"inconclusive [inhibitor, partial curve]"
6,COc1ccc2c(c1)C1(C)CC(C)(C)N2C(=O)N1c1ccccc1 (configuration not stated),"inconclusive [inhibitor, partial curve, poor fit]"
7,Cc1cccc(C(=O)Nc2ccc(C(=O)N3CCCCC3C)cc2)c1 (configuration not stated),"inconclusive [inhibitor, single point]"
8,Nc1c(N(CCC2=CCCCC2)C(=O)c2ccc([N+](=O)[O-])o2)c(=O)[nH]c(=O)n1Cc1ccccc1,active: 10.4 µM
9,CC(C)(C)C(=O)[C@@H]1[C@@H]2C(=O)N(c3ccc4c(c3)OCCO4)C(=O)[C@@H]2C2c3ccccc3C=CN21 (some centres not stated),"inconclusive [inhibitor, partial curve, poor fit]"
10,Cc1ccccc1NS(=O)(=O)c1cc(C(=O)N2CCCC2)ccc1Cl,inactive
11,CC(=O)N1CCN(c2ccc(NC(=O)c3ccc4c(c3)OCCO4)cc2Cl)CC1,inactive
12,Cc1ccc([N+](=O)[O-])c(OCC(O)CNC(C)(C)C)c1 (configuration not stated),"inconclusive [inhibitor, partial curve, poor fit]"
13,Cc1cccc(N2CC(C(=O)Nc3nnc(SCCC4OCCO4)s3)CC2=O)c1 (configuration not stated),"inconclusive [inhibitor, partial curve, poor fit]"
14,Cc1cc(C)c2ccc3c(C)c(C)nc3c2[nH]1,active: 3.7 µM
15,Cc1cccc(NS(=O)(=O)c2ccc(-c3cnc(C4CC4)o3)cc2)c1C,"inconclusive [inhibitor, single point]"
16,CC(C)c1cc(C(=O)O)c2cnn(C(C)C)c2n1,inactive
17,CC(C)OC(=S)N/C(=N\S(=O)(=O)c1ccccc1)c1ccccc1,inactive
18,CC(=O)Nc1ccc(OCC(O)Cn2nc(C)c(Br)c2C)cc1 (configuration not stated),"inconclusive [inhibitor, single point]"
19,Cc1cccc(C)c1NC(=S)NC(=O)c1ccc(Br)o1,"inconclusive [inhibitor, partial curve]"
20,CCN(CC)CCNC(=O)COc1ccc(Cl)cc1Cl,inactive
21,CCOC(=O)c1c(C)n(C)c2c(C)cc(O)c(OC(=O)CC)c12,inactive
22,Cc1cc(-c2nc(-c3ccc(C(C)(C)C)cc3)no2)no1,inactive
23,O=C(CCl)N1N=C(c2ccco2)CC1c1cccs1 (configuration not stated),active: 11.7 µM

row,Compound,Potency
1,CN(C)CCNC(=O)/C(=C/c1ccc(-c2ccc(Cl)cc2)o1)NC(=O)c1ccccc1,active: 13.1 µM
2,COc1ccc(-c2cc(CCCC(=O)NCCc3cc(OC)ccc3OC)no2)cc1,"inconclusive [inhibitor, full curve, poor fit]"
3,CNS(=O)(=O)c1ccc(NC(=O)C2c3ccccc3Oc3ccccc32)cc1,"inconclusive [inhibitor, full curve]"
4,Cc1ccc(NC(=O)C2C3C=CC4(O3)C2C(=O)N(CCCN2CCCC(C)C2)C4C(=O)NC2CCCCC2)cc1 (configuration not stated),"inconclusive [inhibitor, partial curve]"
5,COc1cc(OC)cc(C(=O)NNC(=O)C(=O)Nc2cc(OC)c(Cl)cc2OC)c1,inactive
6,CCCC(=O)N1CC(=O)Nc2ccc(Br)cc2C1c1ccc(F)cc1 (configuration not stated),"inconclusive [inhibitor, partial curve, poor fit]"
7,CCCN(CC(=O)Nc1ccccc1C)C(=O)c1nn(CC)c(=O)c2ccccc12,"inconclusive [inhibitor, partial curve]"
8,COc1ccc(CC(=O)NCC2CCCN(Cc3cccc(SC)c3)C2)cc1 (configuration not stated),"inconclusive [inhibitor, partial curve, poor fit]"
9,CCc1ccc(/C=C2\Oc3c(ccc(O)c3CN3CCN(C)CC3)C2=O)cc1,"inconclusive [inhibitor, full curve]"
10,Cc1ccc(S(=O)(=O)N2CCN(C(=O)CCc3c[nH]c4ccccc34)CC2)cc1,"inconclusive [inhibitor, partial curve, poor fit]"
11,Cc1ccc(NC(=O)CSc2nc3ccccc3c(=O)n2CCCC(=O)N2CCCC2)cc1,"inconclusive [inhibitor, full curve, poor fit]"
12,CCOC(=O)C1(Cc2ccccc2Cl)CCN(Cc2csc(C(C)=O)c2)CC1,"inconclusive [inhibitor, single point]"
13,CC(=O)Nc1ccc(NS(=O)(=O)c2ccc3c(c2)oc(=O)n3C)cc1,inactive
14,COc1ccnc(Oc2ccccc2)c1C#N,inactive
15,C=CCn1c(SCC(=O)Nc2ccc(O)cc2)nc2sc(CC)cc2c1=O,"inconclusive [inhibitor, single point]"
16,CCOC(=O)c1ccc(NC(=O)C2CCC(CNc3c(N4CCOCC4)c(=O)c3=O)CC2)cc1 (configuration not stated),"inconclusive [inhibitor, partial curve, poor fit]"
17,Cc1ccc(-c2csc(N=C(N)N)n2)c(C)c1,"inconclusive [inhibitor, single point]"
18,COc1ccc(-c2c(=O)n(OCc3nc4ccccc4[nH]3)c3ccccc3[n+]2[O-])cc1,"inconclusive [inhibitor, partial curve, poor fit]"
19,CCCOc1ccc(C(=O)Nc2cc(S(=O)(=O)N3CCOCC3)ccc2N2CCOCC2)cc1,active: 11.7 µM
20,O=C(CSc1ccc(-c2cccnc2)nn1)N1CCCCCC1,inactive
21,NS(=O)(=O)c1ccc(N=Nc2c(=O)[nH]n3c(=O)c4c([nH]c23)CCCC4)cc1,"inconclusive [inhibitor, single point]"

# — PubChem BioAssay AID504832 (National Center for Advancing Translational Sciences (NCATS), 2011)
